{"source": "the supplement of paper PMC8728848", "binders": {"B1": {"name": "Cohesin-hDC-ASGPR (Homo sapiens) (protein)", "chain": "LDDLDAVRIKVDTVNAKPGDTVRIPVRFSGIPSKGIANCDFVYSYDPNVLEIIEIEPGDIIVDPNPDKSFDTAVYPDRKIIVFLFAEDSGTGAYAITKDGVFATIVAKVKEGAPNGLSVIKFVEVGGFANNDLVEQKTQFFDGGANVGDTTEPATPTTPVTTPTTTDDLDAASQNSKFQRDLVTLRTDFSNFTSNTVAEIQALTSQGSSLEETIASLKAEVEGFKQERQAGVSELQEHTTQKAHLGHCPHCPSVCVPVHSEMLLRVQQLVQDLKKLTCQVATLNNNASTEGTCCPVNWVEHQDSCYWFSHSGMSWAEAEKYCQLKNAHLVVINSREEQNFVQKYLGSAYTWMGLSDPEGAWKWVDGTDYATGFQNWKPGQPDDWQGHGLGGGEDCAHFHPDGRWNDDVCQRPYHWVCEAGLGQTSQESHHHHHH"}}, "test_in_all_cases": "glycan array binding signal (z-score within array); higher = stronger binding", "conditions_in_all_cases": "glycan notation: IUPAC condensed, linker removed", "key": {"[1]": {"biological_target": "GalNAc3S(b1-4)[Fuc(a1-3)]GlcNAc", "how_it_was_run": "(§1)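 Glycan array binding is given as a within-array Z-score, which can be read as non-binding when negative. The arrays, 3228 of them, came from the Consortium for Functional Glycomics database and were retained only where the protein sequence was available. Z-scores were averaged across arrays of the same protein sequence at different concentrations or buffers and across linkers.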"}, "[2]": {"biological_target": "GalNAc4S6S(b1-4)GlcNAc", "how_it_was_run": "as §1"}, "[3]": {"biological_target": "GalNAc6S(b1-4)GlcNAc", "how_it_was_run": "as §1"}, "[4]": {"biological_target": "Glc(a1-4)Glc", "how_it_was_run": "as §1"}, "[5]": {"biological_target": "Glc(a1-4)Glc(a1-4)Glc(a1-4)Glc", "how_it_was_run": "as §1"}, "[6]": {"biological_target": "Glc(a1-6)Glc(a1-6)Glc", "how_it_was_run": "as §1"}, "[7]": {"biological_target": "Glc(a1-6)Glc(a1-6)Glc(a1-6)Glc", "how_it_was_run": "as §1"}, "[8]": {"biological_target": "Glc(b1-4)Glc", "how_it_was_run": "as §1"}, "[9]": {"biological_target": "Glc(b1-6)Glc", "how_it_was_run": "as §1"}, "[10]": {"biological_target": "GlcA(b1-3)Gal", "how_it_was_run": "as §1"}, "[11]": {"biological_target": "GlcA(b1-3)GlcNAc", "how_it_was_run": "as §1"}, "[12]": {"biological_target": "GlcA(b1-6)Gal", "how_it_was_run": "as §1"}, "[13]": {"biological_target": "GlcA3S(b1-3)Gal(b1-4)GlcNAc(b1-2)Man", "how_it_was_run": "as §1"}, "[14]": {"biological_target": "GlcA3S(b1-3)Gal(b1-4)GlcNAc(b1-3)Gal(b1-4)Glc", "how_it_was_run": "as §1"}, "[15]": {"biological_target": "GlcNAc(a1-3)Gal(b1-4)GlcNAc", "how_it_was_run": "as §1"}, "[16]": {"biological_target": "GlcNAc(a1-4)Gal(b1-3)GlcNAc", "how_it_was_run": "as §1"}, "[17]": {"biological_target": "GlcNAc(a1-4)Gal(b1-4)GalNAc", "how_it_was_run": "as §1"}, "[18]": {"biological_target": "GlcNAc(a1-4)Gal(b1-4)GlcNAc", "how_it_was_run": "as §1"}, "[19]": {"biological_target": "GlcNAc(a1-4)Gal(b1-4)GlcNAc(b1-3)Gal(b1-4)Glc", "how_it_was_run": "as §1"}, "[20]": {"biological_target": "GlcNAc(a1-4)Gal(b1-4)GlcNAc(b1-3)Gal(b1-4)GlcNAc", "how_it_was_run": "as §1"}, "[21]": {"biological_target": "GlcNAc(a1-4)Gal(b1-4)GlcNAc(b1-3)Gal(b1-4)GlcNAc(b1-3)Gal(b1-4)GlcNAc", "how_it_was_run": "as §1"}, "[22]": {"biological_target": "GlcNAc(a1-4)Gal(b1-4)GlcNAc(b1-3)Gal(b1-4)[Fuc(a1-3)]GlcNAc(b1-3)Gal(b1-4)[Fuc(a1-3)]GlcNAc", "how_it_was_run": "as §1"}, "[23]": {"biological_target": "GlcNAc(a1-6)Gal(b1-4)GlcNAc", "how_it_was_run": "as §1"}, "[24]": {"biological_target": "GlcNAc(b1-2)Gal(b1-3)GalNAc", "how_it_was_run": "as §1"}, "[25]": {"biological_target": "GlcNAc(b1-2)Man(a1-3)[GlcNAc(b1-2)Man(a1-6)]Man(b1-4)GlcNAc(b1-4)GlcNAc", "how_it_was_run": "as §1"}, "[26]": {"biological_target": "GlcNAc(b1-2)Man(a1-3)[GlcNAc(b1-2)Man(a1-6)]Man(b1-4)GlcNAc(b1-4)[Fuc(a1-6)]GlcNAc", "how_it_was_run": "as §1"}, "[27]": {"biological_target": "GlcNAc(b1-2)Man(a1-3)[GlcNAc(b1-4)][GlcNAc(b1-2)Man(a1-6)]Man(b1-4)GlcNAc(b1-4)GlcNAc", "how_it_was_run": "as §1"}, "[28]": {"biological_target": "GlcNAc(b1-2)Man(a1-3)[GlcNAc(b1-4)][GlcNAc(b1-2)Man(a1-6)]Man(b1-4)GlcNAc(b1-4)[Fuc(a1-6)]GlcNAc", "how_it_was_run": "as §1"}, "[29]": {"biological_target": "GlcNAc(b1-2)[GlcNAc(b1-4)]Man(a1-3)[GlcNAc(b1-2)Man(a1-6)]Man(b1-4)GlcNAc(b1-4)GlcNAc", "how_it_was_run": "as §1"}, "[30]": {"biological_target": "GlcNAc(b1-2)[GlcNAc(b1-4)]Man(a1-3)[GlcNAc(b1-4)][GlcNAc(b1-2)Man(a1-6)]Man(b1-4)GlcNAc(b1-4)GlcNAc", "how_it_was_run": "as §1"}, "[31]": {"biological_target": "GlcNAc(b1-2)[GlcNAc(b1-4)]Man(a1-3)[GlcNAc(b1-4)][GlcNAc(b1-2)[GlcNAc(b1-6)]Man(a1-6)]Man(b1-4)GlcNAc(b1-4)GlcNAc", "how_it_was_run": "as §1"}, "[32]": {"biological_target": "GlcNAc(b1-2)[GlcNAc(b1-4)]Man(a1-3)[GlcNAc(b1-4)][GlcNAc(b1-2)[GlcNAc(b1-6)]Man(a1-6)]Man(b1-4)GlcNAc(b1-4)[Fuc(a1-6)]GlcNAc", "how_it_was_run": "as §1"}, "[33]": {"biological_target": "GlcNAc(b1-2)[GlcNAc(b1-6)]Man(a1-6)[GlcNAc(b1-2)Man(a1-3)]Man(b1-4)GlcNAc(b1-4)GlcNAc", "how_it_was_run": "as §1"}, "[34]": {"biological_target": "GlcNAc(b1-2)[GlcNAc(b1-6)]Man(a1-6)[GlcNAc(b1-2)Man(a1-3)]Man(b1-4)GlcNAc(b1-4)[Fuc(a1-6)]GlcNAc", "how_it_was_run": "as §1"}, "[35]": {"biological_target": "GlcNAc(b1-2)[GlcNAc(b1-6)]Man(a1-6)[GlcNAc(b1-4)][GlcNAc(b1-2)Man(a1-3)]Man(b1-4)GlcNAc(b1-4)GlcNAc", "how_it_was_run": "as §1"}, "[36]": {"biological_target": "GlcNAc(b1-3)Fuc", "how_it_was_run": "as §1"}, "[37]": {"biological_target": "GlcNAc(b1-3)Gal", "how_it_was_run": "as §1"}, "[38]": {"biological_target": "GlcNAc(b1-3)Gal(b1-3)GalNAc", "how_it_was_run": "as §1"}}, "note": "This is one part of the list.", "data": [{"binder": "B1", "values": [{"measurement": "glycan array binding signal (z-score)", "setting": "[1]", "result": -0.502}, {"measurement": "glycan array binding signal (z-score)", "setting": "[2]", "result": -0.516}, {"measurement": "glycan array binding signal (z-score)", "setting": "[3]", "result": 2.47}, {"measurement": "glycan array binding signal (z-score)", "setting": "[4]", "result": -0.394}, {"measurement": "glycan array binding signal (z-score)", "setting": "[5]", "result": -0.459}, {"measurement": "glycan array binding signal (z-score)", "setting": "[6]", "result": -0.306}, {"measurement": "glycan array binding signal (z-score)", "setting": "[7]", "result": -0.5}, {"measurement": "glycan array binding signal (z-score)", "setting": "[8]", "result": -0.408}, {"measurement": "glycan array binding signal (z-score)", "setting": "[9]", "result": -0.063}, {"measurement": "glycan array binding signal (z-score)", "setting": "[10]", "result": -0.505}, {"measurement": "glycan array binding signal (z-score)", "setting": "[11]", "result": -0.456}, {"measurement": "glycan array binding signal (z-score)", "setting": "[12]", "result": -0.497}, {"measurement": "glycan array binding signal (z-score)", "setting": "[13]", "result": -0.516}, {"measurement": "glycan array binding signal (z-score)", "setting": "[14]", "result": -0.515}, {"measurement": "glycan array binding signal (z-score)", "setting": "[15]", "result": -0.362}, {"measurement": "glycan array binding signal (z-score)", "setting": "[16]", "result": -0.515}, {"measurement": "glycan array binding signal (z-score)", "setting": "[17]", "result": -0.515}, {"measurement": "glycan array binding signal (z-score)", "setting": "[18]", "result": -0.516}, {"measurement": "glycan array binding signal (z-score)", "setting": "[19]", "result": -0.508}, {"measurement": "glycan array binding signal (z-score)", "setting": "[20]", "result": -0.475}, {"measurement": "glycan array binding signal (z-score)", "setting": "[21]", "result": -0.506}, {"measurement": "glycan array binding signal (z-score)", "setting": "[22]", "result": -0.444}, {"measurement": "glycan array binding signal (z-score)", "setting": "[23]", "result": -0.439}, {"measurement": "glycan array binding signal (z-score)", "setting": "[24]", "result": -0.345}, {"measurement": "glycan array binding signal (z-score)", "setting": "[25]", "result": -0.389}, {"measurement": "glycan array binding signal (z-score)", "setting": "[26]", "result": -0.488}, {"measurement": "glycan array binding signal (z-score)", "setting": "[27]", "result": -0.463}, {"measurement": "glycan array binding signal (z-score)", "setting": "[28]", "result": -0.508}, {"measurement": "glycan array binding signal (z-score)", "setting": "[29]", "result": -0.498}, {"measurement": "glycan array binding signal (z-score)", "setting": "[30]", "result": -0.471}, {"measurement": "glycan array binding signal (z-score)", "setting": "[31]", "result": -0.498}, {"measurement": "glycan array binding signal (z-score)", "setting": "[32]", "result": -0.51}, {"measurement": "glycan array binding signal (z-score)", "setting": "[33]", "result": -0.378}, {"measurement": "glycan array binding signal (z-score)", "setting": "[34]", "result": -0.503}, {"measurement": "glycan array binding signal (z-score)", "setting": "[35]", "result": -0.497}, {"measurement": "glycan array binding signal (z-score)", "setting": "[36]", "result": -0.443}, {"measurement": "glycan array binding signal (z-score)", "setting": "[37]", "result": -0.503}, {"measurement": "glycan array binding signal (z-score)", "setting": "[38]", "result": -0.446}]}]}
